Legend:
BCMA 101 x CD3 = assay: SPR (Biacore)
BCMA 102 x CD3 = assay: SPR (Biacore)

- Kd (BCMA 101 x CD3): 800 pM
- Kd (BCMA 102 x CD3): 300 pM
B1: Macaque BCMA (other)
chain (part 1 of 2): [… about 60 residues …]NASGGGGSEAHKSEIAHRYNDLGEQHFKGLVLIAFSQYLQKCSYDEHAKLVQEVTDFAKTCVADESAANCDKSLHTLFGDKLCAIPNLRENYGELADCCTKQEPERNECFLQHKDDNPSLPPFERPEAEAMCTSFKENPTTFMGHYLHEVARRHPYFYAPELLYYAEQYNEILTQCCAEADKESCLTPKLDGVKEKALVSSVRQRMKCSSMQKFGERAFKAWAVARLSQTFPNADFAEITKLATDLTKVNKECCHGDLLECADDRAELAKYMCENQATISSKLQTCCDKPLLKKAHCLSEVEHDTMPADLPAIAADFVEDQEVCKNYAEAKDVFLGTFLYEYSRRHPDYSVSLLLRLAKKYEATLEKCCAEANPPACYGTVLAEFQPLVEEPKNLVKTNCDLYEKLGEYGFQNAILVRYTQKAPQVSTPTLVEAARNLGRVGTKCCTLPEDQRLPCVEDYLSAILNRVCLLHEKTPVSEHVTKCCSGSLVERRPCFSALTVDETYVPKEFKAETFTFHSDICTLPEKEKQIKKQTALAELVKHKPKATAEQLKTVMDDFAQFLDTCCKAADKDTCFSTEGPNLVTRCKDALA
chain (part 2 of 2): SGHHGGHHGGHH

From patent US20150023967A1 (published 2015)
